Laboratory results published in publication PMC3573117, “Identification of the SlmA Active Site Responsible for Blocking Bacterial Cytokinetic Ring Assembly over the Chromosome” (PLoS Genetics, 2013).
No constants are given. Whether binding was seen depends on the method and setting. Some binding calls cover weakened binding; strength is not graded here.

T1: ^EESlmA(FRN) (Escherichia coli) (UniProt P0C093)
T1 sequence: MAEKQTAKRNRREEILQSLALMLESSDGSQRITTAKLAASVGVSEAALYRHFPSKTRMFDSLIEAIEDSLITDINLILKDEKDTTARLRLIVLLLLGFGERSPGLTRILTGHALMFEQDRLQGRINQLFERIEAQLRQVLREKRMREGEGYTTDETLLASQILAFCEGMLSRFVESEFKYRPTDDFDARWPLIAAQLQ

T2: ^EESlmA (Escherichia coli) (UniProt P0C093)
T2 sequence: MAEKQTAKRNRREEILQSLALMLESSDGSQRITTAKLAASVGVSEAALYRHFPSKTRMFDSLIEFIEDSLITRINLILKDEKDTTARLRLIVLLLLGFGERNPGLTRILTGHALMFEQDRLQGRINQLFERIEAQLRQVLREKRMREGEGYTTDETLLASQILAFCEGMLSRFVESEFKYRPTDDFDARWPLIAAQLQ

T3: FtsZ(D212N) (UniProt P0A9A6 1-383, D212N)
T3 construct: FtsZ, tubulin-like cell division protein, GTPase-defective derivative D212N; Polymerised with 5 mM GTP in the assay; also called FtsZ(D212N) polymers; FtsZ(D212N) protofilaments
T3 sequence (looked up): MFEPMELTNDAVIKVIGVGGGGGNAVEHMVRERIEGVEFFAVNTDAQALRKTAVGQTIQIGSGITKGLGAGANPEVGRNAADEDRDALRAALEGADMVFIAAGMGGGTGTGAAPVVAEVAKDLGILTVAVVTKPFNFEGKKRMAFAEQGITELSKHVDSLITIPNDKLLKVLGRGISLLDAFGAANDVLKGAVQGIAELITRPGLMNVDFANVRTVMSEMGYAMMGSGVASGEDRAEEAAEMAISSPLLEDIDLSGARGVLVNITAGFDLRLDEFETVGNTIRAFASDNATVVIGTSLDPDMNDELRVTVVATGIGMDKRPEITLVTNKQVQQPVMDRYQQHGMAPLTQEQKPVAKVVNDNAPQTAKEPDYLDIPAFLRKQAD


Columns and labels:
[1] = target: T1, ^EESlmA(FRN) (Escherichia coli); assay: two-hybrid; bacterial two-hybrid (BACTH): T25 and T18 fusions co-transformed into BTH101 [cya-99]; patches on M9-glucose with Amp, Kan, X-gal, 250 µM IPTG, 30°C, 30 hours; blue colour = interaction; part of the combinations is data not shown
[2] = target: T2, ^EESlmA (Escherichia coli); assay: as above
FtsZ(D212N) = target: T3, FtsZ(D212N); assay: co-sedimentation; FtsZ(D212N) 5 µM with GTP 5 mM, SBS17 DNA 2.5 µM and SlmA derivative 5 µM, room temperature 15 min; 80,000 rpm, TLA100.2 rotor, 15 min; supernatant and pellet on SDS-PAGE, Coomassie; both purified

Row | Binder | binding [1] | binding [2] | binding (FtsZ(D212N))
1 | SlmA(N102S) (protein, UniProt P0C093 1-198) MAEKQTAKRNRREEILQSLALMLESSDGSQRITTAKLAASVGVSEAALYRHFPSKTRMFDSLIEFIEDSLITRINLILKDEKDTTARLRLIVLLLLGFGERSPGLTRILTGHALMFEQDRLQGRINQLFERIEAQLRQVLREKRMREGEGYTTDETLLASQILAFCEGMLSRFVRSEFKYRPTDDFDARWPLIAAQLQ | – | – | no binding (tested: 5 µM)
2 | SlmA(FRN) (protein, UniProt P0C093 1-198) MAEKQTAKRNRREEILQSLALMLESSDGSQRITTAKLAASVGVSEAALYRHFPSKTRMFDSLIEAIEDSLITDINLILKDEKDTTARLRLIVLLLLGFGERSPGLTRILTGHALMFEQDRLQGRINQLFERIEAQLRQVLREKRMREGEGYTTDETLLASQILAFCEGMLSRFVRSEFKYRPTDDFDARWPLIAAQLQ | – | – | no binding (tested: 5 µM)
3 | SlmA(F65A) (protein, UniProt P0C093 1-198) MAEKQTAKRNRREEILQSLALMLESSDGSQRITTAKLAASVGVSEAALYRHFPSKTRMFDSLIEAIEDSLITRINLILKDEKDTTARLRLIVLLLLGFGERNPGLTRILTGHALMFEQDRLQGRINQLFERIEAQLRQVLREKRMREGEGYTTDETLLASQILAFCEGMLSRFVRSEFKYRPTDDFDARWPLIAAQLQ | – | – | no binding (tested: 5 µM)

Now from value to binder:

Row | binding [1] | binding [2] | binding (FtsZ(D212N)) | Binder
4 | binds | binds | – | ^RRSlmA (protein, UniProt P0C093 1-198) MAEKQTAKRNRREEILQSLALMLESSDGSQRITTAKLAASVGVSEAALYRHFPSKTRMFDSLIEFIEDSLITRINLILKDEKDTTARLRLIVLLLLGFGERNPGLTRILTGHALMFEQDRLQGRINQLFERIEAQLRQVLREKRMREGEGYTTDETLLASQILAFCRGMLSRFVRSEFKYRPTDDFDARWPLIAAQLQ
5 | – | – | no binding (tested: 5 µM) | SlmA(R101D) (protein, UniProt P0C093 1-198) MAEKQTAKRNRREEILQSLALMLESSDGSQRITTAKLAASVGVSEAALYRHFPSKTRMFDSLIEFIEDSLITRINLILKDEKDTTARLRLIVLLLLGFGEDNPGLTRILTGHALMFEQDRLQGRINQLFERIEAQLRQVLREKRMREGEGYTTDETLLASQILAFCEGMLSRFVRSEFKYRPTDDFDARWPLIAAQLQ
6 | binds | binds | – | ^RRSlmA(FRN) (protein, UniProt P0C093 1-198) MAEKQTAKRNRREEILQSLALMLESSDGSQRITTAKLAASVGVSEAALYRHFPSKTRMFDSLIEAIEDSLITDINLILKDEKDTTARLRLIVLLLLGFGERSPGLTRILTGHALMFEQDRLQGRINQLFERIEAQLRQVLREKRMREGEGYTTDETLLASQILAFCRGMLSRFVRSEFKYRPTDDFDARWPLIAAQLQ
